Data set [1] is described as follows: Binding in mouse brain homogenate. The conditions noted are these: for Unbound (%), Mouse Brain Homogenate / Percentage binding, Mouse (Brain) homogenate, 1 μM: 1 μM; for Unbound (%), Mouse Brain Homogenate: mean ± SD, n = 3.
Data set [2] in a line: Hepatic microsomal stability, rat. The note with it: Sprague-Dawley, liver microsomes, pH 7.4. (Liver microsomes are a subcellular fraction often used to study metabolism.)

The term half-life denotes how long it takes for the measured level to halve. A lower half-life goes with fast loss.

Some results are limits rather than exact numbers.

With `C(=N\Nc1ccc(-c2cnco2)cc1)/c1ccncc1` [Compound B, (E)-5-(4-(2-(pyridin-4-ylmethylene)hydrazinyl)phenyl)oxazole, reference compound], in data set [1], the “Unbound (%), Mouse Brain Homogenate” value was 11.4 ± 2.89%.
`Cc1cccc(Nc2nc(-c3cc4ccccc4o3)cs2)n1` [IND22, (4-Benzofuran-2-yl-thiazol-2-yl)-(6-methyl-pyridin-2-yl)-amine]: the half-life at 1 μM in data set [2] is 1.77 h.
For `Cc1cccc(Nc2nc(-c3ccc(-c4ccccc4)cc3)cs2)n1` [IND24, (4-Biphenyl-4-yl-thiazol-2-yl)-(6-methyl-pyridin-2-yl)-amine], in data set [1], the “Percentage binding, Mouse (Brain) homogenate, 1 μM” value amounted to 91.8 ± 0.35%; the “Unbound (%), Mouse Brain Homogenate” value stood at 8.20 ± 0.35%; the “Percentage binding, Mouse (Brain) homogenate, 10 μM” value turned out to be 93.1 ± 1.69%. This compound also yielded a half-life at 1 μM in data set [2] above 1 h. The half-life at 1 μM in data set [2] (female) was determined as 12.8 h. For the same compound, the half-life at 1 μM in data set [2] (male) stood at 7.17 h.
In turn, `Cc1ccnc(Nc2nc(-c3ccncc3)cs2)c1` [IND52, (4-Methyl-pyridin-2-yl)-(4-pyridin-4-yl-thiazol-2-yl)-amine] showed a half-life at 1 μM in data set [2] of 0.267 h.
For `Cc1ccnc(Nc2nc(-c3ccc(-c4ccccn4)s3)cs2)c1` [IND81, (4-Methyl-pyridin-2-yl)-[4-(5-pyridin-2-yl-thiophen-2-yl)-thiazol-2-yl]-amine], in data set [1], the “Percentage binding, Mouse (Brain) homogenate, 1 μM” value is given as 90.6 ± 1.49%. Besides, the “Unbound (%), Mouse Brain Homogenate” value in data set [1] was 9.43 ± 1.49%. Further, the “Percentage binding, Mouse (Brain) homogenate, 10 μM” value in data set [1] amounted to 90.7 ± 1.43%. Also, the half-life at 1 μM in data set [2] came out at 0.967 h; in data set [2] (female) it was 4.83 h; in data set [2] (male) it was 1.17 h.
The compound `c1ccc2cc(Nc3nc(-c4ccncc4)cs3)ncc2c1` [IND85, Isoquinolin-3-yl-(4-pyridin-4-yl-thiazol-2-yl)-amine] registered a half-life at 1 μM in data set [2] of 0.3 h.
For the compound `C(=N\Nc1ccc(-c2cnco2)cc1)/c1ccncc1` [IND54304, reference compound], the half-life at 1 μM in data set [2] (female) and in data set [2] (male) was 1.6 h in each case.
